According to the supplement of paper PMC10126150:
Sequences with one replicate were seen in a single cluster, so their values are uncertain.

System: ATP
Test: switch fluorescence ratio, 500 uM ATP over buffer (Cy3 cluster intensity, sum of 5 cycles each) (fold (ratio)); higher = stronger signal-on switching upon ATP binding; sequences stand for … in TCGTCGGCAGCGTCAGATGTGTATAAGAGACAGTTTTTTTTTTTTTTTTTTTTTTTTT…TC
Details: aptamer strand: ATP DNA aptamer (quencher-CACCTGGGGGAGTATTGCGGAGGAAGG + anchor), 100 nM annealed; ATP concentration: 500 uM; one replicate
Procedure, shortened: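 Cy3-labelled switching-strand clusters on a modified Illumina MiSeq flow-cell were annealed to 100 nM quencher-labelled ATP aptamer and imaged first in selection buffer, then after 15 min with 500 uM ATP at 22 °C. NaOH stripping and re-annealing separated each of five buffer/ATP cycles, and clusters outside 100-1000 RFU were excluded. The fluorescence ratio sums target-cycle Cy3 intensity over buffer-cycle Cy3 intensity per cluster and averages it per switch-domain sequence.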
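Also: ATP exposure 15 min at 22 °C before imaging.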

Sequence	switch fluorescence ratio
AAGCTGCTT	0.998
AAGCTGGAT	1.12
AAGCTTTTTA	1.02
AAGGAAATGA	1.04
AAGGACAATC	1.09
AAGGACGATT	1.01
AAGGACGGGA	1.05
AAGGAGAAGT	1.02
AAGGAGATTT	0.978
AAGGAGCAGA	1.04
AAGGAGTAGT	1.05
AAGGAGTTC	0.967
AAGGATGCCT	1.02
AAGGATTGGT	0.997
AAGGCAACGA	1.04
AAGGCAGCTT	0.998
AAGGCCCCGA	1.01
AAGGCTATTT	0.965
AAGGCTTGCG	0.96
AAGGGACTGT	1.07
AAGGGATCTC	0.983
AAGGGCATGC	0.997
AAGGGCCCCG	0.956
AAGGGCTGG	1.06
AAGGGCTGTA	0.977
AAGGGGACAA	0.974

Sequence	switch fluorescence ratio
AAGGGGCCAC	0.972
AAGGGGGTG	1.03
AAGGGGTTGT	0.996
AAGGGTAGGT	1.03
AAGGGTCTG	1.01
AAGGTCATAG	1.01
AAGGTCATGT	0.997
AAGGTCATTC	0.984
AAGGTCGAGA	1.02
AAGGTCGGAT	0.99
AAGGTGAACA	1
AAGGTGAGCA	1.01
AAGGTGCTC	1.19
AAGGTGGAAT	1.26
AAGGTGGCAG	0.992
AAGGTGTCCG	0.975
AAGGTGTGGT	1.02
AAGGTTAACG	0.981
AAGGTTATA	1.05
AAGTACATC	1.28
AAGTACATTC	1.23
AAGTACATTT	1.22
AAGTACCTGG	1.27
AAGTACTCGA	1.23
AAGTAGGAG	0.965
AAGTAGGCGA	0.99

Sequence	switch fluorescence ratio
AAGTAGTGTA	1.01
AAGTATCAAA	1.03
AAGTATCTGC	1.06
AAGTCACAAC	1.05
AAGTCACCAC	1.05
AAGTCATCTC	0.965
AAGTCCAAAC	0.964
AAGTCCGAGG	1.03
AAGTCCGCCA	1.74
AAGTCGAAA	1.01
AAGTCGGCAA	1.37
AAGTCTCACC	0.991
AAGTGACAGA	0.956
AAGTGAGCAC	1.03
AAGTGATAGA	1.07
AAGTGCACTA	0.995
AAGTGCAGGT	0.969
AAGTGGCGAA	1.01
AAGTGGTTCT	1.02
AAGTGTTGTT	1.03
AAGTTACCCT	1.12
AAGTTAGAAC	0.99
AAGTTAGCAT	1.02
AAGTTCGTGG	0.991
AAGTTGAGAC	1.01
AAGTTGTCGC	1

Sequence	switch fluorescence ratio
AAGTTTACAA	1.01
AAGTTTGAGG	1.03
AAGTTTGCA	0.966
AAGTTTTCTA	1.01
AATAAGAGTC	1.06
AATAAGTATG	1
AATAATACCT	1.48
AATAATATGG	1.08
AATAATGCAC	1.06
AATAATTCAG	1.01
AATAATTG	0.982
AATACATTGG	1.02
AATACCCGAT	1.04
AATACCTTAG	1.04
AATACTACGA	1.06
AATACTCTTT	1.04
AATACTGAAC	1.2
AATAGAAATT	0.949
AATAGACTAT	0.993
AATAGCGACG	0.967
AATAGGCAAG	0.974
AATAGGCACG	1.07
AATAGTCGAT	1.03
